Measured values published in PubChem BioAssay AID504832 (National Center for Advancing Translational Sciences (NCATS), 2011).
In all, about 310,000 compounds went through this assay and about 18,000 (5.8%) were called active. The shares of active, inactive and inconclusive entries below differ from those in the screen. Calls come from the whole dose curve; as a rule, active = well fitted inhibition curve with a large enough effect; inconclusive = small, poorly fitted or top-dose-only effect, or another doubt; inactive = no such curve, though single readings can be large or run the other way. No potency is given beside an inconclusive call; the fits are too rough. Some compounds were tested as several samples or in several runs, with calls that do not always agree.

Assay: Primary qHTS for delayed death inhibitors of the malarial parasite plastid, 48 hour incubation
Conditions: P. falciparum luciferase growth in erythrocytes; series mostly up to 28.7 µM
Summary of the method: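 Luciferase-expressing parasites in RBCs, 2% Hct / 0.1% parasitemia final; RPMI 1640 + 0.5% Albumax; 37 C, 5% CO2, one generation; luminescence read-out, lower signal = inhibition.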
% is set by controls: 0 for no effect and ±100 for the full control effect; potency is the fitted concentration of half-maximal effect; tags give direction and shape of the fitted curve.

SMILES | activity change, negative = inhibition | Potency
Cc1cnc(NC(=O)CCNC(=O)c2ccc([N+](=O)[O-])cc2)s1 | inactive: -36.7% [at 5.75 µM] | –
CCCCc1cc(=O)oc2cc(C)cc(OCC(=O)NCc3ccccn3)c12 | – | active: 2.94 µM
CC(C)CCn1c(=O)c2sccc2n2c(CCCC(=O)N3CCC(N4CCCCC4)CC3)nnc12 | – | inconclusive [inhibitor, partial curve]
CC(c1ccccc1)n1c(N2CCN(C)CC2)nc2c1c(=O)[nH]c(=O)n2C (stereo unspecified) | – | inactive
COc1ccccc1CN1CCNC(=O)C1CC(=O)NCCC1=CCCCC1 (stereo unspecified) | – | inconclusive [inhibitor, single point]
CC(=O)Nc1ccc(S(=O)(=O)NCCC(=O)OCc2nnc(-c3ccccc3)o2)cc1 | – | inconclusive [inhibitor, single point]
O=C(NNc1nc(-c2ccccc2)cs1)c1cccs1 | – | inconclusive [inhibitor, single point]
O=C1N(Cc2cccnc2)C[C@@H]2C[C@@H](c3ccc(-c4ccccc4)cc3)N3CCC[C@@]123 | – | active: 11.7 µM
CCOC(=O)C1(CC2CC2)CCN(Cc2cn[nH]c2-c2cccc(F)c2)CC1 | – | inconclusive [inhibitor, partial curve, poor fit]
CCOC(=O)c1ccc2[nH]c(-c3ccc(S(=O)(=O)F)cc3)cc(=O)c2c1 | – | inactive
Cc1c(C(=O)NC(C)c2ccc(-n3ccnc3)cc2)cccc1[N+](=O)[O-] (stereo unspecified) | – | inconclusive [inhibitor, partial curve, poor fit]
COc1ccc(Br)cc1CN(C)C(=O)Cc1ccc(S(=O)(=O)N2CCOCC2)s1 | – | inconclusive [inhibitor, partial curve]
COc1cc(-c2noc(C)c2C#CC2(N)CCCCC2)cc(OC)c1OC | – | inconclusive [inhibitor, partial curve]
CCOc1ccc(-n2c(SCC(=O)Nc3ccccc3CC)nc3n[nH]c(C)c3c2=N)cc1 | – | inconclusive [inhibitor, partial curve]
C=CCNC(=O)/C(C#N)=C/c1ccccc1OCc1ccc(C(=O)OC)cc1 | – | inactive
CC(C)OC(=O)C1C2C=CC3(CN(Cc4cccs4)C(=O)C13)O2 (stereo unspecified) | – | inactive
Cc1ccc(C(=O)N/C(=C\c2ccc(-c3cccc([N+](=O)[O-])c3)o2)C(=O)NC(C)(C)C)cc1 | – | inconclusive [inhibitor, partial curve, poor fit]
CCCc1c(C(=O)Nc2cc(C)on2)cnn1-c1ccccc1 | – | inconclusive [inhibitor, partial curve, poor fit]
Cc1ccc(-c2cc(-c3ccccc3)nc(NN)n2)cc1 | – | inconclusive [inhibitor, single point]
CC(C)c1ccccc1NC(=O)COC(=O)C1(C)CC1(Cl)Cl (stereo unspecified) | – | inconclusive [inhibitor, partial curve]
COc1ccc(C2c3ccc4ccccc4c3Oc3ncn(CCCO)c(=N)c32)cc1OC (stereo unspecified) | – | inconclusive [inhibitor, full curve, poor fit]

SMILES | activity change, negative = inhibition | Potency
COc1ccc(CCNC(=O)COc2cccc3c2OC(C)(C)C3)cc1OC | – | inconclusive [inhibitor, partial curve, poor fit]
CCOc1cc(C(c2c(C)[nH][nH]c2=O)c2c(C)[nH][nH]c2=O)cc(Cl)c1O | inactive: 2.63% [at 0.00184 µM] | –
Cc1cccn2c(=O)c(/C=C(\C#N)C(N)=O)c(N3CCN(c4ccccc4)CC3)nc12 | – | inconclusive [inhibitor, partial curve]
Cc1ccccc1NC(=O)CN1CCC(NC(=O)Nc2ccccc2)CC1 | – | inconclusive [inhibitor, partial curve, poor fit]
O=S(=O)(c1ccccc1)N1N=C(c2ccc(O)cc2)CC1c1ccco1 (stereo unspecified) | – | inactive
Cc1csc(CNc2ncnc3ccc(-c4ccoc4)cc23)c1 | – | active: 13.1 µM
Cc1cc(=O)n2nc(N3CCCC(C(=O)NCc4cccc(Cl)c4)C3)sc2n1 (stereo unspecified) | – | inconclusive [inhibitor, partial curve, poor fit]
COc1ccc(Cl)cc1NC(=O)CNC(c1ccccc1)c1ccccc1 | – | inconclusive [inhibitor, full curve]
COc1ccc(-c2nc(NC(=O)c3c(C)noc3C)sc2C)cc1 | – | inconclusive [inhibitor, single point]
O=c1/c(=C/c2cn(-c3ccccc3)nc2-c2ccc(F)cc2)sc2nc3ccccc3n12 | – | inconclusive [inhibitor, partial curve, poor fit]
CC(OC(=O)CNC(=O)c1ccco1)C(=O)Nc1ccc(Cl)cn1 (stereo unspecified) | – | inconclusive [inhibitor, single point]
COc1ccc(C2c3ccc4ccccc4c3Oc3ncn(CCN4CCOCC4)c(=N)c32)cc1 (stereo unspecified) | – | active: 11.7 µM
NC(=O)NC(=O)COC(=O)/C=C/c1cccc(Br)c1 | – | inactive
CCC(C)(C)C(=O)O[C@H]1C[C@@H](C)C=C2C=C[C@H](C)[C@H](CC[C@@H]3C[C@@H](O)CC(=O)O3)[C@H]21 | – | inconclusive [inhibitor, single point]
COc1cccc(CN2CCN(Cc3ccon3)CC2CCO)c1 (stereo unspecified) | – | inactive
COc1ccccc1-c1c(C#N)c(N)nc2c1CCc1ccccc1-2 | – | active: 11.7 µM
COc1ccc(CC(=O)O/N=C(\N)Cc2cccc3ccccc23)cc1 | – | inconclusive [inhibitor, single point]
CC(Cc1ccccc1)NC(=O)C(c1ccc(N)cc1)c1ccc(N)cc1 (stereo unspecified) | – | inconclusive [inhibitor, partial curve, poor fit]
OCCN(CCO)c1ccc(C(c2ccc(Cl)cc2)c2ccc(N(CCO)CCO)cc2Cl)c(Cl)c1 | – | inconclusive [inhibitor, single point]
CCCC[C@@H]1CNC(=O)C(=O)N1CCc1cc(C(F)(F)F)cc(C(F)(F)F)c1 | – | inconclusive [inhibitor, single point]
